# The other results are listed elsewhere or left out.
# Assays:
# Test in all cases: glycan array binding signal (z-score within array); higher = stronger binding
# Details in all cases: glycan notation: IUPAC condensed, linker removed
# [1] = biological target: Gal(b1-2)Gal
# Method in brief: (§1)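 The binding signal is a Z-score computed within each array. Data were drawn from 3228 arrays in the Consortium for Functional Glycomics database, restricted to those with a known protein sequence. Scores were averaged over arrays of the same protein sequence at different concentrations or buffers, and over linkers, and negative values can be taken as non-binding.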
# [2] = biological target: Gal(b1-3)Gal
# Method in brief: as §1
# [3] = biological target: Gal(b1-3)Gal(b1-4)GlcNAc
# Method in brief: as §1
# [4] = biological target: Gal(b1-3)GalNAc
# Method in brief: as §1
# [5] = biological target: Gal(b1-3)GalNAc(a1-3)[Fuc(a1-2)]Gal(b1-4)Glc
# Method in brief: as §1
# [6] = biological target: Gal(b1-3)GalNAc(a1-3)[Fuc(a1-2)]Gal(b1-4)GlcNAc
# Method in brief: as §1
# [7] = biological target: Gal(b1-3)GalNAc(b1-3)Gal
# Method in brief: as §1
# [8] = biological target: Gal(b1-3)GalNAc(b1-3)Gal(a1-4)Gal(b1-4)Glc
# Method in brief: as §1
# [9] = biological target: Gal(b1-3)GalNAc(b1-4)Gal(b1-4)Glc
# Method in brief: as §1
# [10] = biological target: Gal(b1-3)GalNAc(b1-4)[Neu5Ac(a2-3)]Gal(b1-4)Glc
# Method in brief: as §1
# [11] = biological target: Gal(b1-3)GlcNAc
# Method in brief: as §1
# [12] = biological target: Gal(b1-3)GlcNAc(a1-3)Gal(b1-4)GlcNAc
# Method in brief: as §1
# [13] = biological target: Gal(b1-3)GlcNAc(a1-6)Gal(b1-4)GlcNAc
# Method in brief: as §1
# [14] = biological target: Gal(b1-3)GlcNAc(b1-2)Man
# Method in brief: as §1
# [15] = biological target: Gal(b1-3)GlcNAc(b1-2)Man(a1-3)[Gal(b1-3)GlcNAc(b1-2)Man(a1-6)]Man(b1-4)GlcNAc(b1-4)GlcNAc
# Method in brief: as §1
# [16] = biological target: Gal(b1-3)GlcNAc(b1-2)Man(a1-3)[Gal(b1-3)GlcNAc(b1-2)Man(a1-6)]Man(b1-4)GlcNAc(b1-4)[Fuc(a1-6)]GlcNAc
# Method in brief: as §1
# [17] = biological target: Gal(b1-3)GlcNAc(b1-2)Man(a1-3)[GlcNAc(b1-4)][Gal(b1-3)GlcNAc(b1-2)Man(a1-6)]Man(b1-4)GlcNAc(b1-4)GlcNAc
# Method in brief: as §1
# [18] = biological target: Gal(b1-3)GlcNAc(b1-2)[Gal(b1-3)GlcNAc(b1-6)]Man(a1-6)[Gal(b1-3)GlcNAc(b1-2)Man(a1-3)]Man(b1-4)GlcNAc(b1-4)GlcNAc
# Method in brief: as §1
# [19] = biological target: Gal(b1-3)GlcNAc(b1-3)Gal(b1-3)GlcNAc
# Method in brief: as §1
# [20] = biological target: Gal(b1-3)GlcNAc(b1-3)Gal(b1-4)Glc
# Method in brief: as §1
# [21] = biological target: Gal(b1-3)GlcNAc(b1-3)Gal(b1-4)GlcNAc
# Method in brief: as §1
# [22] = biological target: Gal(b1-3)GlcNAc(b1-3)Gal(b1-4)GlcNAc(b1-2)Man(a1-3)[Gal(b1-3)GlcNAc(b1-3)Gal(b1-4)GlcNAc(b1-2)Man(a1-6)]Man(b1-4)GlcNAc(b1-4)GlcNAc
# Method in brief: as §1
# [23] = biological target: Gal(b1-3)GlcNAc(b1-3)Gal(b1-4)GlcNAc(b1-2)[Gal(b1-3)GlcNAc(b1-3)Gal(b1-4)GlcNAc(b1-6)]Man(a1-6)[Gal(b1-3)GlcNAc(b1-3)Gal(b1-4)GlcNAc(b1-2)Man(a1-3)]Man(b1-4)GlcNAc(b1-4)[Fuc(a1-6)]GlcNAc
# Method in brief: as §1
# [24] = biological target: Gal(b1-3)GlcNAc(b1-3)Gal(b1-4)GlcNAc(b1-3)Gal(b1-4)GlcNAc(b1-2)[Gal(b1-3)GlcNAc(b1-3)Gal(b1-4)GlcNAc(b1-3)Gal(b1-4)GlcNAc(b1-6)]Man(a1-6)[Gal(b1-3)GlcNAc(b1-3)Gal(b1-4)GlcNAc(b1-3)Gal(b1-4)GlcNAc(b1-2)Man(a1-3)]Man(b1-4)GlcNAc(b1-4)[Fuc(a1-6)]GlcNAc
# Method in brief: as §1
# [25] = biological target: Gal(b1-3)GlcNAc(b1-3)Gal(b1-4)GlcNAc(b1-6)[Gal(b1-3)GlcNAc(b1-3)]Gal(b1-4)Glc
# Method in brief: as §1
# [26] = biological target: Gal(b1-3)GlcNAc(b1-3)Gal(b1-4)[Fuc(a1-3)]GlcNAc
# Method in brief: as §1
# [27] = biological target: Gal(b1-3)GlcNAc(b1-3)Gal(b1-4)[Fuc(a1-3)]GlcNAc(b1-6)[Gal(b1-3)GlcNAc(b1-3)]Gal(b1-4)Glc
# Method in brief: as §1
# [28] = biological target: Gal(b1-3)GlcNAc(b1-3)GalNAc
# Method in brief: as §1
# [29] = biological target: Gal(b1-3)GlcNAc(b1-6)Gal(b1-4)GlcNAc
# Method in brief: as §1
# [30] = biological target: Gal(b1-3)GlcNAc(b1-6)GalNAc
# Method in brief: as §1
# [31] = biological target: Gal(b1-3)GlcNAc(b1-6)[Gal(b1-3)]GalNAc
# Method in brief: as §1
# [32] = biological target: Gal(b1-3)GlcNAc6S
# Method in brief: as §1
# [33] = biological target: Gal(b1-3)[Fuc(a1-4)]GlcNAc
# Method in brief: as §1
# [34] = biological target: Gal(b1-3)[Fuc(a1-4)]GlcNAc(b1-2)Man
# Method in brief: as §1
# [35] = biological target: Gal(b1-3)[Fuc(a1-4)]GlcNAc(b1-2)Man(a1-3)[Gal(b1-3)[Fuc(a1-4)]GlcNAc(b1-2)Man(a1-6)]Man(b1-4)GlcNAc(b1-4)[Fuc(a1-6)]GlcNAc
# Method in brief: as §1
# [36] = biological target: Gal(b1-3)[Fuc(a1-4)]GlcNAc(b1-3)Gal(b1-3)[Fuc(a1-4)]GlcNAc
# Method in brief: as §1
# [37] = biological target: Gal(b1-3)[Fuc(a1-4)]GlcNAc(b1-3)Gal(b1-4)[Fuc(a1-3)]GlcNAc
# Method in brief: as §1
# [38] = biological target: Gal(b1-3)[Fuc(a1-4)]GlcNAc(b1-6)GalNAc
# Method in brief: as §1
# [39] = biological target: Gal(b1-3)[GlcNAc(b1-6)]GalNAc
# Method in brief: as §1
# [40] = biological target: Gal(b1-3)[Neu5Ac(a2-6)]GalNAc
# Method in brief: as §1
# [41] = biological target: Gal(b1-3)[Neu5Ac(a2-6)]GlcNAc(b1-4)Gal(b1-4)Glc
# Method in brief: as §1
# [42] = biological target: Gal(b1-3)[Neu5Ac(b2-6)]GalNAc
# Method in brief: as §1
# [43] = biological target: Gal(b1-4)Gal
# Method in brief: as §1
# [44] = biological target: Gal(b1-4)GalNAc(a1-3)[Fuc(a1-2)]Gal(b1-4)GlcNAc
# Method in brief: as §1
# [45] = biological target: Gal(b1-4)GalNAc(b1-3)[Fuc(a1-2)]Gal(b1-4)GlcNAc
# Method in brief: as §1
binder,measurement,setting,value
Si Bti9 1b-HA (Solanum lycopersicum) (protein) MFESRPRSVLSLGVFVILVYLSSVPLPVNSQCNRGCDLALASFYVWRGSNLTLISEMFSTSIADIVSYNNRDNIPNQDSVIAGTRINIPFRCDCLNDGEVLGHAFPYRVKSGDTYDLVARNYSDLTTAQWMMKFNSYPENNIPNTVNLSVVVNCSCGNSDVSKDFGLFVTYPVRAEDNLTSVASAANVSEDIIRRYNPAAVSILDIGQGIIYIPGRDRNGNFPPLPTSTDGLSGGAKAPLFFNPAFLYKVVELKLAGRSRTSGYPYDVPDYAGYPYDVPDYALEVLFQ,glycan array binding signal (z-score),[1],0.983
same,glycan array binding signal (z-score),[2],-0.244
same,glycan array binding signal (z-score),[3],-0.198
same,glycan array binding signal (z-score),[4],-0.104
same,glycan array binding signal (z-score),[5],-0.047
same,glycan array binding signal (z-score),[6],-0.454
same,glycan array binding signal (z-score),[7],-0.327
same,glycan array binding signal (z-score),[8],-0.431
same,glycan array binding signal (z-score),[9],-0.283
same,glycan array binding signal (z-score),[10],-0.122
same,glycan array binding signal (z-score),[11],-0.351
same,glycan array binding signal (z-score),[12],-0.16
same,glycan array binding signal (z-score),[13],-0.324
same,glycan array binding signal (z-score),[14],-0.408
same,glycan array binding signal (z-score),[15],3.24
same,glycan array binding signal (z-score),[16],1.03
same,glycan array binding signal (z-score),[17],3.72
same,glycan array binding signal (z-score),[18],2.51
same,glycan array binding signal (z-score),[19],-0.271
same,glycan array binding signal (z-score),[20],-0.456
same,glycan array binding signal (z-score),[21],-0.437
same,glycan array binding signal (z-score),[22],-0.204
same,glycan array binding signal (z-score),[23],0.333
same,glycan array binding signal (z-score),[24],0.38
same,glycan array binding signal (z-score),[25],-0.466
same,glycan array binding signal (z-score),[26],-0.109
same,glycan array binding signal (z-score),[27],-0.657
same,glycan array binding signal (z-score),[28],-0.393
same,glycan array binding signal (z-score),[29],-0.543
same,glycan array binding signal (z-score),[30],0.049
same,glycan array binding signal (z-score),[31],-0.205
same,glycan array binding signal (z-score),[32],0.447
same,glycan array binding signal (z-score),[33],-0.408
same,glycan array binding signal (z-score),[34],0.574
same,glycan array binding signal (z-score),[35],0.058
same,glycan array binding signal (z-score),[36],-0.373
same,glycan array binding signal (z-score),[37],-0.223
same,glycan array binding signal (z-score),[38],0.032
same,glycan array binding signal (z-score),[39],-0.308
same,glycan array binding signal (z-score),[40],-0.343
same,glycan array binding signal (z-score),[41],-0.134
same,glycan array binding signal (z-score),[42],-0.441
same,glycan array binding signal (z-score),[43],-0.003
same,glycan array binding signal (z-score),[44],-0.332
same,glycan array binding signal (z-score),[45],-0.319
